SMILES strings stand for the structures. The campaign covered roughly 52,000 compounds. About 1,700 (3.3%) were called active. Rule as the data show it: active = survival mostly below about 52% (no sharp cut-off); inactive = mostly above about 56%. Some of the results follow.

The test system of the assay is Wild type. Kind of assay: S. aureus survival, RN4220 and DeltatarO strains – OD600, teichoic acid synthesis inhibitors, primary screen (AID 463173). The following applies: S. aureus RN4220 wild type/DeltatarO growth, OD600, 18 h, active compounds read low, screened at 18.75 µg/mL (by protocol).
`COc1ccc(OC(=O)c2cc(-c3ccc4c(c3)OCCO4)on2)cc1`: the survival was inactive: 109%.
Regarding `Cc1ccc(C)c(NC(=O)CSc2cn(CC(=O)N3CCCCC3)c3ccccc23)c1`, the survival was inactive: 100%.
Turning to `CCOc1ccc(NC(=O)Cn2c(=O)nc(-c3ccccc3)c3ccccc32)cc1`, the survival is inactive: 80%.
As for `Cc1ccc(OCC(=O)OCc2cc(=O)n3ccsc3n2)cc1C`, the survival is inactive: 64%.
In the case of `COc1ccccc1N1CCN(c2ncc3c(n2)CCN(Cc2ccccc2C)C3)CC1` it was inactive: 63%; in that of `Cc1nc2ccc(S(=O)(=O)NCC(=O)NCc3ccc(Cl)cc3)cc2s1`, inactive: 85%; in that of `Cc1nn(-c2ccccc2)c(-n2cccc2)c1C(=O)NCCCN1CCN(c2ccccc2F)CC1`, inactive: 76%.
`CC1CCN(S(=O)(=O)c2ccc3[nH]ccc3c2)CC1`: the survival was inactive: 89%.
Turning to `Brc1ccc(-c2cn3cc(Cc4ccccc4)sc3n2)cc1`, the survival was inactive: 74%.
In the case of `O=C1NC(NS(=O)(=O)c2ccccc2)(C(F)(F)F)C(=O)N1CCc1ccccc1` (stereo not drawn) it was inactive: 83%; in that of `CCOc1ccc(-c2cc3nc(C4CCN(C(=O)OC(C)(C)C)CC4)c(C(=O)Nc4cccc(Cl)c4C)cn3n2)cc1`, inactive: 88%; in that of `Cn1cc(CCCC(=O)NCc2ccc(F)cc2)c2ccccc21`, inactive: 86%.
Then `CCOC(=O)c1ccc(NC(=O)c2noc3c2CCCC3)cc1`, with active: -2%; and `CCN(c1ccccc1)c1ncnc2c1cnn2-c1ccc(OC)cc1`, with inactive: 64%; and `Cc1ccc2[nH]c3c(=O)n(CC(=O)N4CCN(c5ccccc5F)CC4)ncc3c2c1`, with inactive: 63%.
As to `O=C(CCC(=O)N1CCOc2ccccc21)NCc1cccs1`, the survival was inactive: 83%.
On to `COc1ccc(Cn2c(CNC(=O)Cc3ccc(OC)c(OC)c3)nc3cccnc32)cc1`, for which the survival was inactive: 72%.
On to `Cc1cc(N2CCN(C)CC2)nc2ccc(NC(=O)Nc3ccc(F)cc3)cc12`, for which the survival is inactive: 78%.
On to `O=S(=O)(NCCc1nnc2ccc(SCc3cccc(Cl)c3)nn12)c1ccccc1`, for which the survival is inactive: 70%.
In the case of `CC(=O)N1CCCc2cc(S(=O)(=O)N3CCCC(C(=O)Nc4ccc(F)cc4F)C3)ccc21` (stereo not drawn) it was inactive: 83%.
Take `COc1ccc(-c2cc(C(F)(F)F)c(C#N)c(SCC(=O)Nc3cccc(C)c3)n2)cc1`: the survival is inactive: 74%.
With `O=C(NCC(c1ccco1)S(=O)(=O)c1ccc(Cl)cc1)c1ccc(C(F)(F)F)cc1` (stereo not drawn), the survival was active: -1%.
Regarding `O=C(Cn1c(=O)n(Cc2ccco2)c(=O)c2sc3ccccc3c21)Nc1ccc(F)cc1F`, the survival was inactive: 84%.
Regarding `COc1ccc(C(=O)N(Cc2ccco2)Cc2ccccc2F)cc1Cl`, the survival was inactive: 107%.
Regarding `O=C1CCC(C(=O)Nc2ccccc2)N1` (stereo not drawn), the survival was inactive: 110%.
Take `Cc1ccc(Cn2c(SCc3ccc(C(=O)O)cc3)nc3cccnc32)cc1`: the survival was inactive: 82%.
As to `O=C1CCCC(O)=C1C=Nc1cccc(C(F)(F)F)c1`, the survival was inactive: 111%.
In the case of `COc1cccc(CC(=O)Nc2c(C(=O)N3CCN(c4ccccc4)CC3)oc3ccccc23)c1`, the survival was inactive: 76%.
`CC(Sc1nc(NC(C)(C)C)nc(N(C)C)n1)C(=O)Nc1ccccc1` (stereo not drawn): the survival was inactive: 103%.
As to `CC1CCCCC1NC(=O)CSc1nncn1N` (stereo not drawn), the survival was inactive: 108%.
For `CCOc1ccc(CCNC(=O)c2ccc3nc(N4CCC(C)CC4)sc3c2)cc1OCC`, the survival was inactive: 73%.
For `CCOC(=O)CCc1c(C)c2cc3c(c(C)c2oc1=O)OCN(CCc1ccccc1OC)C3`, the survival was inactive: 83%.
Take `CCN(CCCNC(=O)CN1N=C(c2ccccc2)CCC1=O)c1cccc(C)c1`: the survival was inactive: 136%.
As for `CCC(C)n1c(=O)c2sccc2n2c(CCCC(=O)Nc3ccc(F)cc3)nnc12` (stereo not drawn), the survival was inactive: 97%.
As for `CSc1ncc(Cl)c(C(=O)Nc2c(C(=O)c3ccc(C)cc3)oc3ccccc23)n1`, the survival was inactive: 88%.
In the case of `Cc1ccc(NC(=O)NC(C)c2c(-n3cccc3)sc(C)c2C)c(C)c1` (stereo not drawn) it was inactive: 80%.
As to `Cc1ccc(SCC(=O)Nc2ccc(O)c(-c3nc4cc(C)ccc4o3)c2)cc1`, the survival is inactive: 83%.
As to `Cc1ccccc1-n1c(SCC(=O)c2ccccc2)nnc1-c1ccc(F)cc1`, the survival was inactive: 136%.
Then `COc1ccc(NC(=O)c2ccco2)cc1NC(=O)c1cccc(C)c1OC`, with inactive: 60%; and `COc1cc(OC)cc(C(=O)Nc2cc(NC(=O)c3ccco3)ccc2OC)c1`, with inactive: 116%.
In the case of `O=C(Nc1ccccc1)C1CCN(S(=O)(=O)c2ccc3c(c2)CCCN3C(=O)C2CCC2)CC1` it was inactive: 66%; in that of `Cc1ccc2c(CN3CCN(c4ccc(Cl)cc4)CC3)cc(=O)oc2c1`, inactive: 82%.
Turning to `Cc1ccc(CNC(=O)CCCCCn2c(=O)c3sccc3n(CC(=O)C(C)(C)C)c2=O)cc1`, the survival was inactive: 77%.
Regarding `CC1CCCCN1CC(=O)N1CCN(C(=O)CN2CCCCC2C)CC1` (stereo not drawn), the survival was inactive: 106%.
Consider `COc1ccc(Cn2c(CCC(=O)Nc3cc(C)cc(C)c3)nc3cccnc32)cc1`, for which the survival was inactive: 132%.
Consider `Cc1ccc(NC(=O)CSc2nc(=O)n(Cc3ccncc3)c3c2CCC3)cc1Cl`, for which the survival was inactive: 99%.
Regarding `CCOc1cc(CNC(=O)CSc2n[nH]c(-c3ccccc3)n2)cc(OCC)c1OCC`, the survival was inactive: 131%.
In the case of `Cc1ccc(Cl)cc1N(C)C(=O)c1sc2nc3n(c(=O)c2c1C)CCCC3` it was inactive: 77%.
Consider `CCC(c1nnnn1CCc1ccccc1)N(Cc1ccco1)Cc1cc2cc(C)ccc2[nH]c1=O` (stereo not drawn), for which the survival is inactive: 106%.
Turning to `COc1ccc(Nc2ncc(C(=O)Nc3cccc(OC)c3)c3ccccc23)cc1`, the survival is inactive: 130%.
Consider `O=C1NC(c2ccco2)Nc2ccccc21` (stereo not drawn), for which the survival was inactive: 124%.
Then `O=C(NCC1(c2ccccc2)CCCC1)C(=O)Nc1cccc(C(F)(F)F)c1`, with inactive: 104%; and `COc1ccc2nc(NS(=O)(=O)c3ccc(C)cc3)c(Nc3cc(Cl)ccc3OC)nc2c1`, with inactive: 68%.
In the case of `O=C(O)c1ccc(N2CCOCC2)cc1` it was inactive: 108%; in that of `N#CC1=C(N)OC2=C(C(=O)CCC2)C1c1ccccc1C(F)(F)F` (stereo not drawn), inactive: 109%.
With `CCOc1ccc(CCNC(=O)CSc2cc(=O)n(C)c3ccccc23)cc1OCC`, the survival was inactive: 127%.
Take `O=C1CC(c2ccccc2)Cc2[nH]c(=O)c(-c3nc(-c4cccc(Cl)c4)cs3)cc21` (stereo not drawn): the survival is inactive: 81%.
`CCOC(=O)Cn1c(=O)oc2cc(S(=O)(=O)NCc3ccc(F)cc3)ccc21`: the survival is inactive: 69%.
